Results published in article PMC10287950.
These are yes or no findings as the source states them, for the method shown. In cells and extracts the contact can be indirect. Some results given as binding are weak or reduced against the parent protein; the word gives no strength.

The chains behind the UniProt entries cited, without tags or fusion partners. Where a name states a change or a piece, a line headed by the entry shows the natural chain unless it says otherwise. A line that says so, or that is headed by a name, gives the form on record, which may keep a tag or linker. Residues count along the entry.
UniProt Q5JSZ5: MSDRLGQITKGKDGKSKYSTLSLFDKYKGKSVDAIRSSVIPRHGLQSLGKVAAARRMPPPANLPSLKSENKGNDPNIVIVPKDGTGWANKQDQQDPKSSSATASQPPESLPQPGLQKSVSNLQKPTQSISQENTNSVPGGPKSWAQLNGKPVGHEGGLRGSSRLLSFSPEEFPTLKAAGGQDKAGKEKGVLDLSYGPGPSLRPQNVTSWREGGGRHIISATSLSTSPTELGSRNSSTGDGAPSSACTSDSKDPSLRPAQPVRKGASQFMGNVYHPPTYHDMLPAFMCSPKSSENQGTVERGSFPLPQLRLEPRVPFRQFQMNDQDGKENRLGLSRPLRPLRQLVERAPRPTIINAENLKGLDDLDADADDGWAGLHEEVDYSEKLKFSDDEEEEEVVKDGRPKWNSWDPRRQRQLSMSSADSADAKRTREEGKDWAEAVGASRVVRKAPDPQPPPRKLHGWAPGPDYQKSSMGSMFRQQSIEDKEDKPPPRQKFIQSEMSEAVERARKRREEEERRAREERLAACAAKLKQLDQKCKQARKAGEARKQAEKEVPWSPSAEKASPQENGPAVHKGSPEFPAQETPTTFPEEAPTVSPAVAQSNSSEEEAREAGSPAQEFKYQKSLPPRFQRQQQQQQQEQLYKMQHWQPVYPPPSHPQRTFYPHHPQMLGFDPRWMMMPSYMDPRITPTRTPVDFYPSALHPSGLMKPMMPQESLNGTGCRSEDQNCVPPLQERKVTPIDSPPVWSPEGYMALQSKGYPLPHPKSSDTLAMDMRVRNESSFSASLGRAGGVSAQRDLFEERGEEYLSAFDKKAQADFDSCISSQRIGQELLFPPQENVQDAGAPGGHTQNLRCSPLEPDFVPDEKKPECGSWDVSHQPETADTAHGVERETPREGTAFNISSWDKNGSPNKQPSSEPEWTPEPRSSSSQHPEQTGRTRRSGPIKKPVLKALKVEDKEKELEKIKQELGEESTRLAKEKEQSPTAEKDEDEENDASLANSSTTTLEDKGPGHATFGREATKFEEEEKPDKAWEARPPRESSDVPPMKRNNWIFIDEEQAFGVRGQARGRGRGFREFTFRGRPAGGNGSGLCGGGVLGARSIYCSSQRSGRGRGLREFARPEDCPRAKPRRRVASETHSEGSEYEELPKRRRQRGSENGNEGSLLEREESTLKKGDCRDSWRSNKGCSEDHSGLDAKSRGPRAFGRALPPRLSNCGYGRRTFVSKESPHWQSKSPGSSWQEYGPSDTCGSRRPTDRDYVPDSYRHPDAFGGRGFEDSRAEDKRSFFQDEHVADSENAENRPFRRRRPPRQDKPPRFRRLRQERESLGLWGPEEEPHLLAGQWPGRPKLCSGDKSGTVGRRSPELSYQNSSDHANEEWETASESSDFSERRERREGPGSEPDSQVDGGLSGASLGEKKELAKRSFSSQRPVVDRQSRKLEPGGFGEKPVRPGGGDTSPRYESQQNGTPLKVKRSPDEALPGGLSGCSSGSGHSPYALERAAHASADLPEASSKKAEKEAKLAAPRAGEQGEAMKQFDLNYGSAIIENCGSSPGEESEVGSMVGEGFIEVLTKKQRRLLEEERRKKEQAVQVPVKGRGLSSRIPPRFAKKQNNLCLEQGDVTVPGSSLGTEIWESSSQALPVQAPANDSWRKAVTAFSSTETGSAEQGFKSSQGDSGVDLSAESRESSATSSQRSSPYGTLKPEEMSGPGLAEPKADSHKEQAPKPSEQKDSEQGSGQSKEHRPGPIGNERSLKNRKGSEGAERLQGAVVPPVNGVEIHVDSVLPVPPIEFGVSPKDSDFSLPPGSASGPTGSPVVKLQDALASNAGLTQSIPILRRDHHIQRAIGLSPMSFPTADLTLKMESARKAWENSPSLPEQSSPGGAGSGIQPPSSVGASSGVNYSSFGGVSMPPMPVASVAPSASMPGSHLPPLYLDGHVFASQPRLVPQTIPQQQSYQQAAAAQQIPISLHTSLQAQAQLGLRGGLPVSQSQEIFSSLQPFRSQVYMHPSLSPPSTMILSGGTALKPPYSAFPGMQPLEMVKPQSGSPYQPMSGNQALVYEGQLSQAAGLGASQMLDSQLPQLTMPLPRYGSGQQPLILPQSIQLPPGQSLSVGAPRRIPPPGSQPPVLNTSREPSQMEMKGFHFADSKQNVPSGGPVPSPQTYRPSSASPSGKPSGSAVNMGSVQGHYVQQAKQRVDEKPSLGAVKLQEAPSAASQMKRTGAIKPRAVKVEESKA
PRRC2B 1-450 amino acids region (truncated P1): residues 1-450 of Q5JSZ5
FLAG-tagged truncated PRRC2B with eIF4G2/eIF3 binding region removed (del450): residues 451-2229 of Q5JSZ5
FLAG-tagged PRRC2B fragment P2: residues 751-1500 of Q5JSZ5
UniProt P51114: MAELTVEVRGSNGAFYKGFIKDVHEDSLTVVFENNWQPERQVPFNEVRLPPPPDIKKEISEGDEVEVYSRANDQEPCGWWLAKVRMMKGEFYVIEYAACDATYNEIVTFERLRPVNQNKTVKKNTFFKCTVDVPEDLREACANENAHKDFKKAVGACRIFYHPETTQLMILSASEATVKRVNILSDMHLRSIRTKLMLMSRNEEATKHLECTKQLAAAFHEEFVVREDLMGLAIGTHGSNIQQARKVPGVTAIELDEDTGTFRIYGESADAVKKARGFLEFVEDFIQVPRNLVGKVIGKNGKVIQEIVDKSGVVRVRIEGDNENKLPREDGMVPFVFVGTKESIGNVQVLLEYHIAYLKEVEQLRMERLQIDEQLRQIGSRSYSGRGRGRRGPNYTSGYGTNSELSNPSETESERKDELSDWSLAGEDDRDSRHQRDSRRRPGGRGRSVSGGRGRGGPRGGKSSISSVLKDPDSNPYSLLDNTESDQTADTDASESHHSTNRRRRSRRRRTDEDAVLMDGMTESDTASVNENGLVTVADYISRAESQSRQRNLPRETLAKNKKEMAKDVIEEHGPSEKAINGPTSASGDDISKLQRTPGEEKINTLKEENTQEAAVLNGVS

B1: eukaryotic translation initiation factor 4G2 (eIF4G2) (protein, UniProt P78344 1-907)
chain: MESAIAEGGASRFSASSGGGGSRGAPQHYPKTAGNSEFLGKTPGQNAQKWIPARSTRRDDNSAANNSANEKERHDAIFRKVRGILNKLTPEKFDKLCLELLNVGVESKLILKGVILLIVDKALEEPKYSSLYAQLCLRLAEDAPNFDGPAAEGQPGQKQSTTFRRLLISKLQDEFENRTRNVDVYDKRENPLLPEEEEQRAIAKIKMLGNIKFIGELGKLDLIHESILHKCIKTLLEKKKRVQLKDMGEDLECLCQIMRTVGPRLDHERAKSLMDQYFARMCSLMLSKELPARIRFLLQDTVELREHHWVPRKAFLDNGPKTINQIRQDAVKDLGVFIPAPMAQGMRSDFFLEGPFMPPRMKMDRDPLGGLADMFGQMPGSGIGTGPGVIQDRFSPTMGRHRSNQLFNGHGGHIMPPTQSQFGEMGGKFMKSQGLSQLYHNQSQGLLSQLQGQSKDMPPRFSKKGQLNADEISLRPAQSFLMNKNQVPKLQPQITMIPPSAQPPRTQTPPLGQTPQLGLKTNPPLIQEKPAKTSKKPPPSKEELLKLTETVVTEYLNSGNANEAVNGVREMRAPKHFLPEMLSKVIILSLDRSDEDKEKASSLISLLKQEGIATSDNFMQAFLNVLDQCPKLEVDIPLVKSYLAQFAARAIISELVSISELAQPLESGTHFPLFLLCLQQLAKLQDREWLTELFQQSKVNMQKMLPEIDQNKDRMLEILEGKGLSFLFPLLKLEKELLKQIKLDPSPQTIYKWIKDNISPKLHVDKGFVNILMTSFLQYISSEVNPPSDETDSSSAPSKEQLEQEKQLLLSFKPVMQKFLHDHVDLQVSALYALQVHCYNSNFPKGMLLRFFVHFYDMEIIEEEAFLAWKEDITQEFPGKGKALFQVNQWLTWLETAEEEESEEEAD

What was measured:
[1] = biological target: FLAG-tagged PRRC2B fragment P2 (human) (UniProt Q5JSZ5); test: co-IP; IP of FLAG-tagged PRRC2B or its fragments from transfected HEK293T lysate with anti-DYKDDDDK magnetic agarose; western blot; RNase treatment not told for these panels
[2] = biological target: FLAG-tagged full-length PRRC2B (human) (UniProt Q5JSZ5); test: as above
[3] = biological target: Proline-Rich Coiled-coil 2B (PRRC2B), endogenous (human (endogenous in HEK293T)) (UniProt Q5JSZ5); test: co-IP; IP of endogenous PRRC2B from HEK293T lysate with rabbit anti-PRRC2B antibody and protein A Dynabeads, without RNase T1 treatment; western blot
[4] = biological target: Proline-Rich Coiled-coil 2B (PRRC2B), endogenous (human (endogenous in HEK293T)) (UniProt Q5JSZ5); test: co-IP; IP of PRRC2B from HEK293T lysate after RNase T1 digestion of RNA to less than 35 nt (Supplementary Figure S5B, C)
[5] = biological target: PRRC2B 1-450 amino acids region (truncated P1) (human) (UniProt Q5JSZ5); test: co-IP; IP of FLAG-tagged PRRC2B or its fragments from transfected HEK293T lysate with anti-DYKDDDDK magnetic agarose; western blot; RNase treatment not told for these panels
[6] = biological target: FLAG-tagged truncated PRRC2B with eIF4G2/eIF3 binding region removed (del450) (human) (UniProt Q5JSZ5); test: co-IP; IP of FLAG-tagged full-length PRRC2B or del450 from HEK293T lysate with anti-DYKDDDDK magnetic agarose upon RNase T1 treatment (5 U/μl); western blot
[7] = biological target: FLAG-tagged full-length PRRC2B (human) (UniProt Q5JSZ5); test: as above

Row | Molecule | binding [1] | binding [2] | binding [3] | binding [4] | binding [5] | binding [6] | binding [7]
1 | 3' UTR-binding protein FXR1 (from UniProt P51114 1-621) | binds | binds | binds | binds |  |  | 
2 | B1 | no binding | binds | binds | binds | binds | no binding | binds
